# Measured values published in a collection of fitness landscapes (doi:10.1126/science.1257360).
# Some of the results follow.
# B1: PhoQ; a variant is named by its letters at X, in order, P23837 (parent)
# chain: MKKLLRLFFPLSLRVRFLLATAAVVLVLSLAYGMVALIGYSVSFDKTTFRLLRGESNLFYTLAKWENNKLHVELPENIDKQSPTMTLIYDENGQLLWAQRDVPWLMKMIQPDWLKSNGFHEIEADVNDTSLLLSGDHSIQQQLQEVREDDDDAEMTHSVAVNVYPATSRMPKLTIVVVDTIPVELKSSYMVWSWFIYVLSANLLLVIPLLWVAAWWSLRPIEALAKEVRELEEHNRELLNPATTRELTSLVRNLNRLLKSERERYDKYRTTLTDLTHSLKTPLXXLQXXLRSLRSEKMSVSDAEPVMLEQISRISQQIGYYLHRASMRGGTLLSRELHPVAPLLDNLTSALNKVYQRKGVNISLDISPEISFVGEQNDFVEVMGNVLDNACKYCLEFVEISARQTDEHLYIVVEDDGPGIPLSKREVIFDRGQRVDTLRPGQGVGLAVAREITEQYEGKIVAGESMLGGARMEVIFGRQHSAPKDE
# Variants of: B1
# Assay: enrichment ratio after two sorts for PhoP signalling (ratio (wild type AVST 3.29)); higher = more functional
# Conditions: with PhoP (E. coli)
row,Variant,enrichment ratio
1,PSLD,≤ 0.25
2,GHMF,≤ 0.25
3,YLPE,≤ 0.25
4,PALS,≤ 0.25
5,FYIY,≤ 0.25
6,DIWE,≤ 0.25
7,DWGH,≤ 0.25
8,WHGR,≤ 0.25
9,ICIM,≤ 0.25
10,DLEL,≤ 0.25
11,SHWG,≤ 0.25
12,AEQA,≤ 0.25
13,HPQR,≤ 0.25
14,QHMQ,≤ 0.25
15,TFHP,≤ 0.25
16,PVHS,≤ 0.25
17,AVHL,≤ 0.25
18,YGVQ,≤ 0.25
19,QNAH,≤ 0.25
20,IDNS,≤ 0.25
21,GNIM,13.4
22,KSSW,0.925
23,MDGR,≤ 0.25
24,PVVV,≤ 0.25

row,Variant,enrichment ratio
1,YFLF,≤ 0.25
2,VWGA,≤ 0.25
3,MWFF,≤ 0.25
4,YCLN,3.13
5,VHSL,≤ 0.25
6,QYGH,≤ 0.25
7,DDID,≤ 0.25
8,SEGY,7.5
9,MISN,8.15
10,YKQD,≤ 0.25
11,SHCV,2.51
12,NPNW,≤ 0.25
13,VQLF,≤ 0.25
14,RPRA,≤ 0.25
15,PFDC,≤ 0.25
16,AFCP,≤ 0.25
17,FWGW,≤ 0.25
18,WSHG,≤ 0.25
19,NHSQ,≤ 0.25
20,AHCF,8.2
21,MRVK,≤ 0.25
22,QRAV,≤ 0.25
23,RKPM,≤ 0.25
24,DGMV,≤ 0.25

row,Variant,enrichment ratio
1,QLGV,≤ 0.25
2,PPDG,≤ 0.25
3,SLTL,15.2
4,LVPK,≤ 0.25
5,VSPP,≤ 0.25
6,WNRA,≤ 0.25
7,WITF,≤ 0.25
8,MKRI,≤ 0.25
9,WKQL,≤ 0.25
10,DEFA,≤ 0.25
11,NHVN,≤ 0.25
12,HRIM,≤ 0.25
13,GRLP,≤ 0.25
14,DFFS,≤ 0.25
15,PIKR,≤ 0.25
16,QVAN,≤ 0.25
17,RRWT,≤ 0.25
18,KHRR,≤ 0.25
19,DRDI,≤ 0.25
20,AWKD,≤ 0.25
21,MQKA,≤ 0.25
22,VQSC,≤ 0.25
23,FDSS,≤ 0.25
24,WSLP,≤ 0.25

row,Variant,enrichment ratio
1,SSAQ,10.4
2,CFTL,15.7
3,QMLA,≤ 0.25
4,DHVD,≤ 0.25
5,DCPK,≤ 0.25
6,ITCR,≤ 0.25
7,WQVK,≤ 0.25
8,ESID,≤ 0.25
9,RDES,≤ 0.25
10,NGEV,≤ 0.25
11,PRKW,≤ 0.25
12,IAMN,≤ 0.25
13,AGCQ,23
14,NMKA,≤ 0.25
15,DCMW,≤ 0.25
16,MMIA,≤ 0.25
17,WSQL,≤ 0.25
18,WSTK,≤ 0.25
19,VRGK,≤ 0.25
20,YKWE,≤ 0.25
21,GCKP,≤ 0.25
22,HDHE,≤ 0.25
23,HECR,≤ 0.25
24,SQFS,1.64

row,Variant,enrichment ratio
1,TKIW,≤ 0.25
2,TCGE,3.66
3,DNLD,≤ 0.25
4,RRAV,≤ 0.25
5,SGTK,≤ 0.25
6,WFGD,≤ 0.25
7,SQHN,≤ 0.25
8,PPIE,≤ 0.25
9,FVMQ,1.68
10,PGPN,≤ 0.25
11,SQLI,11.8
12,IGGA,≤ 0.25
13,HWQR,≤ 0.25
14,GGHH,≤ 0.25
15,QTAT,≤ 0.25
16,PKYW,≤ 0.25
17,AKMT,52.1
18,YNRE,≤ 0.25
19,RQRD,≤ 0.25
20,YVRL,≤ 0.25
21,MQCK,≤ 0.25
22,YLNM,≤ 0.25
23,KYHQ,≤ 0.25
24,NQVY,≤ 0.25

row,Variant,enrichment ratio
1,NIKI,≤ 0.25
2,WFWI,≤ 0.25
3,FWNL,≤ 0.25
4,YMSA,≤ 0.25
5,DPHH,≤ 0.25
6,FHLG,≤ 0.25
7,WVWQ,≤ 0.25
8,ALKP,≤ 0.25
9,GHQA,≤ 0.25
10,SRQA,≤ 0.25
11,YGNT,≤ 0.25
12,RINN,≤ 0.25
13,HLQW,≤ 0.25
14,GMFL,≤ 0.25
15,AFMR,≤ 0.25
16,KTWP,≤ 0.25
17,LFMK,≤ 0.25
18,DRFM,≤ 0.25
19,KIMS,≤ 0.25
20,LMSG,≤ 0.25
21,AENF,≤ 0.25
22,IKVP,≤ 0.25
23,MICS,1.95
24,HMGV,≤ 0.25

row,Variant,enrichment ratio
1,KCYD,≤ 0.25
2,DAGG,≤ 0.25
3,LDPG,≤ 0.25
4,RYGP,≤ 0.25
5,FIHA,≤ 0.25
6,FGFT,≤ 0.25
7,GMDP,≤ 0.25
8,RNHE,≤ 0.25
9,MSYD,≤ 0.25
10,IIDA,≤ 0.25
11,NRWI,≤ 0.25
12,PNSG,≤ 0.25
13,AVLL,3.31
14,DYAP,≤ 0.25
15,MHMP,≤ 0.25
16,GYWH,≤ 0.25
17,WRLT,≤ 0.25
18,GIWE,≤ 0.25
19,MCAG,8.12
20,FLPT,≤ 0.25
21,AEYV,≤ 0.25
22,REGV,≤ 0.25
23,DFMI,≤ 0.25
24,VESA,≤ 0.25

row,Variant,enrichment ratio
1,NDYQ,≤ 0.25
2,KECN,≤ 0.25
3,DVIH,≤ 0.25
4,QQPL,≤ 0.25
5,WHLQ,≤ 0.25
6,QTPI,≤ 0.25
7,FSYH,≤ 0.25
8,AASD,≤ 0.25
9,FDWQ,≤ 0.25
10,CVPV,≤ 0.25
11,NHSD,≤ 0.25
12,TNNC,11.1
13,GDIN,≤ 0.25
14,HMNM,≤ 0.25
15,HMCV,≤ 0.25
16,FPIH,≤ 0.25
17,VRAY,≤ 0.25
18,DGVR,≤ 0.25
19,FRKL,≤ 0.25
20,WDYY,≤ 0.25
21,WHIF,≤ 0.25
22,LVVT,≤ 0.25
23,NDQC,8.9
24,FTGA,≤ 0.25

row,Variant,enrichment ratio
1,NSEN,≤ 0.25
2,QQPR,≤ 0.25
3,LCTG,≤ 0.25
4,RVHN,≤ 0.25
5,DWSR,≤ 0.25
6,FYIP,≤ 0.25
7,PTKW,≤ 0.25
8,RWHV,≤ 0.25
9,FAVA,≤ 0.25
10,VHQK,≤ 0.25
11,LHEC,≤ 0.25
12,DSAH,≤ 0.25
13,ASHK,≤ 0.25
14,FEPS,≤ 0.25
15,GLMY,≤ 0.25
16,LRMF,≤ 0.25
17,HALQ,7.8
18,MEFH,4.99
19,KLWL,≤ 0.25
20,HNIF,≤ 0.25
21,TDLA,14
22,AIVM,1.42
23,ARES,≤ 0.25
24,SFPS,≤ 0.25

row,Variant,enrichment ratio
1,LVKL,≤ 0.25
2,LCPF,≤ 0.25
3,RPRT,≤ 0.25
4,WYYL,≤ 0.25
5,WARF,≤ 0.25
6,VPPI,≤ 0.25
7,YIID,≤ 0.25
8,YETS,≤ 0.25
9,GYAY,≤ 0.25
10,YKRA,≤ 0.25
11,QNSE,≤ 0.25
12,PANI,≤ 0.25
13,VYSA,≤ 0.25
14,LISH,≤ 0.25
15,QDVA,≤ 0.25
16,RSVR,≤ 0.25
17,YQRH,≤ 0.25
18,GHWS,≤ 0.25
19,WTSV,≤ 0.25
20,QFME,≤ 0.25
21,LHCG,≤ 0.25
22,KEYC,≤ 0.25
23,QTMN,≤ 0.25
24,PMFA,≤ 0.25

row,Variant,enrichment ratio
1,DCVA,≤ 0.25
2,RCAH,≤ 0.25
3,DFVL,≤ 0.25
4,WCAW,≤ 0.25
5,IATE,≤ 0.25
6,AYAH,≤ 0.25
7,NMLI,≤ 0.25
8,MSKY,≤ 0.25
9,LCIS,≤ 0.25
10,AIYL,≤ 0.25
11,NECC,≤ 0.25
12,PTAW,≤ 0.25
13,KHHD,≤ 0.25
14,YRTF,≤ 0.25
15,RCMV,≤ 0.25
16,IMEC,≤ 0.25
17,RKNH,≤ 0.25
18,EHWV,≤ 0.25
19,RNPI,≤ 0.25
20,SPAG,≤ 0.25
21,MDTI,≤ 0.25
22,NWCM,≤ 0.25
23,HTSS,≤ 0.25
24,EYPV,≤ 0.25

row,Variant,enrichment ratio
1,PMSE,≤ 0.25
2,GNMF,15.2
3,IVTH,≤ 0.25
4,MSNY,≤ 0.25
5,LTWI,≤ 0.25
6,VDTV,≤ 0.25
7,HPDW,≤ 0.25
8,VQCV,≤ 0.25
9,DFPT,≤ 0.25
10,SCCN,17.1
11,NTRR,≤ 0.25
12,MNWT,3.6
13,FFTR,≤ 0.25
14,ILAP,≤ 0.25
15,KADM,≤ 0.25
16,YDYY,≤ 0.25
17,VEYA,≤ 0.25
18,ECKS,≤ 0.25
19,AWDF,≤ 0.25
20,IVAW,≤ 0.25
21,HPQD,≤ 0.25
22,HDYL,≤ 0.25
23,SKSC,3.25
24,KRDL,≤ 0.25

row,Variant,enrichment ratio
1,AIQP,≤ 0.25
2,DESK,≤ 0.25
3,ESCG,≤ 0.25
4,PRFN,≤ 0.25
5,LFSF,≤ 0.25
6,YIRN,≤ 0.25
7,VYNL,≤ 0.25
8,DFMC,≤ 0.25
9,LNWG,≤ 0.25
10,FLTQ,≤ 0.25
11,NHLK,≤ 0.25
12,AWLW,≤ 0.25
13,SDID,≤ 0.25
14,CSRF,≤ 0.25
15,QFGI,≤ 0.25
16,QKWV,≤ 0.25
17,EPSD,≤ 0.25
18,PRRE,≤ 0.25
